The list shows a part of the results.
What follows are sequences tested on PfHDP1 homeodomain (GST-tagged) (assay: gcPBM binding intensity (ln(normalized median fluorescence intensity)); higher = stronger DNA binding).
Summary of the method: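 GST-tagged P. falciparum DNA-binding domains produced in E. coli were incubated for 1 h on an Agilent 4 × 180k array of primer-extended double-stranded 36-bp intergenic genomic probes with negative controls. Binding intensity is the highest Masliner-normalised natural-log median intensity across replicate spots of either probe orientation, with bound protein detected by Alexa488 anti-GST antibody at 488 nm.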
In the case of “TCCTTATATGGGCACACACACACAATAAAATGAAAA [CACACA_site1030]”, the “gcPBM binding intensity (ln)” value is reported as 7.06.
For “GTTTATATTAAACAAACACACACATATATATATATA [CACACA_site8749]”, the “gcPBM binding intensity (ln)” value was 9.16.
“TAAATATGCTCACAGATGCACTAACACATTTTTATA [GTGCAC_site9997]” was tested, and the “gcPBM binding intensity (ln)” value was 10.4.
In the case of “TTTTATACATAAATGTGTACGTATATATAATGAATT [XGTACX_site2762]”, the “gcPBM binding intensity (ln)” value is reported as 6.62.
“TATTGTAGAGGCAAAAGTACACATTTAATAATTTCC [XGTACX_site1151]” was tested, and the “gcPBM binding intensity (ln)” value was 6.26.
With “TACATGCATTTCTCATGTACATAATTTTCCCATATT [XGTACX_site5158]” the “gcPBM binding intensity (ln)” value was 6.61.
In the case of “ATAAATTAAAGACACACACACATCTGGATACCCCTA [CACACA_site7546]”, the “gcPBM binding intensity (ln)” value is reported as 6.9.
In the case of “TTATATTATATATATAGTACACATGTAATATTTCAA [XGTACX_site1791]”, the “gcPBM binding intensity (ln)” value is reported as 6.65.
In the case of “ATCTATATAATATATACACACAAATATACAAAAAAA [CACACA_site1013]”, the “gcPBM binding intensity (ln)” value is reported as 7.13.
“TTATTAATATATAAATGTACATATACAATACATAAA [XGTACX_site5571]” was tested, and the “gcPBM binding intensity (ln)” value was 6.41.
“TATTTAAGAGTATGAACACACATCATACACATATAA [CACACA_site3617]” was tested, and the “gcPBM binding intensity (ln)” value was 6.43.
In the case of “TATGTTTGTGTATATATTTATTTTTATGTAATTATA [GTGCAC_negctrl_site219]”, the “gcPBM binding intensity (ln)” value is reported as 6.92.
In the case of “ATTTAAAAATAAAGAACACACATATGTAAAATATAT [CACACA_site3754]”, the “gcPBM binding intensity (ln)” value is reported as 6.73.
For “CAAAATATAACATCATCACACACATATACTTTATAT [CACACA_site8292]”, the “gcPBM binding intensity (ln)” value was 6.62.
With “AAAAAAATTAGACACACACACACATATAAATATGTA [CACACA_site6618]” the “gcPBM binding intensity (ln)” value was 6.64.
In the case of “ATTTAGAATGCGTATACACACATATATAGATTTGCT [CACACA_site626]”, the “gcPBM binding intensity (ln)” value is reported as 6.54.
In the case of “AATAGAACTATTACACGTACAGAACATGAATTAGTT [XGTACX_site7518]”, the “gcPBM binding intensity (ln)” value is reported as 6.1.
With “TGTTATATATGTAATTGTACACTTATACAAAATTAT [XGTACX_site6350]” the “gcPBM binding intensity (ln)” value was 7.03.
For “TTTTTTAATTAGTACAAACACACATATACAGACAAA [CACACA_site2564]”, the “gcPBM binding intensity (ln)” value was 7.23.
With “TCTTTTACAAAAGCTATAACATTCACCACATTATAA [GTGCAC_negctrl_site133]” the “gcPBM binding intensity (ln)” value was 6.37.
For “TATATATATATATAAACACACATAAATATAAATATA [CACACA_site1121]”, the “gcPBM binding intensity (ln)” value was 9.04.
“GTTAATGTGGTTACTTGTACATATTAACGTCTTTTT [XGTACX_site2617]” was tested, and the “gcPBM binding intensity (ln)” value was 6.42.
“AAAAAAAAAATATACACACACATATATATATATATA [CACACA_site3404]” was tested, and the “gcPBM binding intensity (ln)” value was 9.35.
In the case of “ATATATATATTTTATGCATGTTCATTTTCTATATTT [TGCATGCA_site442]”, the “gcPBM binding intensity (ln)” value is reported as 7.94.
With “TCAACACACGTGGAATGTACTTTAGTATAAGAATTC [XGTACX_site7842]” the “gcPBM binding intensity (ln)” value was 6.38.
For “TAAATATATTTCATGACATGCAACTTGTTTTTTTGT [TGCATGCA_site456]”, the “gcPBM binding intensity (ln)” value was 6.91.
“ATAAAAAAAAGACACACACACATATATATATATATA [CACACA_site3073]” was tested, and the “gcPBM binding intensity (ln)” value was 9.37.
“GATTCATTTCATAATACACACAACAAATATTTCAAA [CACACA_site120]” was tested, and the “gcPBM binding intensity (ln)” value was 6.83.
In the case of “TCGACAATTTTATAAAGTACTTATTAGAAATATGAA [XGTACX_site7133]”, the “gcPBM binding intensity (ln)” value is reported as 6.22.
In the case of “CCATTTAAAACATTTTGTACTTATTTTACATTTCTG [XGTACX_site4270]”, the “gcPBM binding intensity (ln)” value is reported as 6.57.
In the case of “AAACAAATAAAATTTATTAAAAAGGTCATATTATTA [CACACA_negctrl_site85]”, the “gcPBM binding intensity (ln)” value is reported as 6.12.
For “AGAAAAAAAAATTATACATGCATATACGTTTATTTT [TGCATGCA_site529]”, the “gcPBM binding intensity (ln)” value was 6.17.
In the case of “TTTCTTACAACAACAACAAAAAAAAATAAATAAAAT [GTGCAC_negctrl_site711]”, the “gcPBM binding intensity (ln)” value is reported as 6.56.
With “ATATTTTATATTTCTTGTACATATATTTGTAGATAT [XGTACX_site1140]” the “gcPBM binding intensity (ln)” value was 6.54.
For “TATTATTTTTTTATTCTATTAAAAAGAAAAAAATGA [CACACA_negctrl_site407]”, the “gcPBM binding intensity (ln)” value was 5.92.
For “AATTTATTTTTAAAAAGTACATACTTAAGAAAACGA [XGTACX_site3660]”, the “gcPBM binding intensity (ln)” value was 6.85.
“ATATATATATATATATGTACACACATCAATCATATT [XGTACX_site4005]” was tested, and the “gcPBM binding intensity (ln)” value was 9.39.
In the case of “AGAGTACAAGTAAATACACACATATAGATGAAAATA [CACACA_site6635]”, the “gcPBM binding intensity (ln)” value is reported as 6.88.
In the case of “AAGAAAACTTAAAATAAAAGCATATTTTATCTTACA [TGCATGCA_negctrl_site366]”, the “gcPBM binding intensity (ln)” value is reported as 5.77.
For “TGCAGTCTGGAGAAGAGTACATAGTATCTGGTAGCT [XGTACX_site2021]”, the “gcPBM binding intensity (ln)” value was 6.26.
With “TATTAATAAATTTATAAAACAGGTATATATATATAT [CACACA_negctrl_site615]” the “gcPBM binding intensity (ln)” value was 9.24.
In the case of “CAAAGGGAAATTAACACACACATATTTATATTTATA [CACACA_site7202]”, the “gcPBM binding intensity (ln)” value is reported as 6.48.
With “ATGTATATGATTAAATGTACGTAAACAAATTTGTAA [XGTACX_site8174]” the “gcPBM binding intensity (ln)” value was 6.92.
In the case of “ACCACATAAAACAAATGTACTTGAAATATATGCGTA [XGTACX_site5155]”, the “gcPBM binding intensity (ln)” value is reported as 6.24.
With “AAAAATTATGGACACACACACATATATATATATATT [CACACA_site4717]” the “gcPBM binding intensity (ln)” value was 6.81.
“GGTATACGCAAGTATACACACATATATATATATATA [CACACA_site3240]” was tested, and the “gcPBM binding intensity (ln)” value was 9.32.
In the case of “AATAAAATAAAATACACACATACATACATACAAATG [CACACA_site2438]”, the “gcPBM binding intensity (ln)” value is reported as 6.99.
With “TAATTTATGACACGCGCACACATATATATATAGTAA [CACACA_site4249]” the “gcPBM binding intensity (ln)” value was 6.96.
With “TGAGTTACATACTAATGTACACAACAAAAAAAAAAA [XGTACX_site2390]” the “gcPBM binding intensity (ln)” value was 6.13.
In the case of “AAAGGTTTATATGATACACACATAAGTGATCAGGTT [CACACA_site190]”, the “gcPBM binding intensity (ln)” value is reported as 6.36.
With “TTTTTTTGAACATATACACACTCTAAACTTATACAT [CACACA_site3917]” the “gcPBM binding intensity (ln)” value was 6.7.
In the case of “AAAAACTAATCTTTAACATGCAACCGTTTATACATA [TGCATGCA_site363]”, the “gcPBM binding intensity (ln)” value is reported as 6.58.
“TTTTGCAATAATGTTGCACACTAAATAGTCATCTAT [CACACA_site4304]” was tested, and the “gcPBM binding intensity (ln)” value was 9.09.
For “ATTTCATAAATTAAACGTACATAATACACACACATG [XGTACX_site4155]”, the “gcPBM binding intensity (ln)” value was 7.08.
For “GTACGATAAAAAATTGGACAAAAAAAAAAAAAAAAT [XGTACX_negctrl_site158]”, the “gcPBM binding intensity (ln)” value was 6.28.
With “TAAAACAACAAAGAAAATGAAAAAGTAAAAACATAT [CACACA_negctrl_site1049]” the “gcPBM binding intensity (ln)” value was 6.82.

From the supplement of paper PMC11417369
